Measured values as given in PubChem BioAssay (Tox21).
This list was built around the results that the source calls inconclusive (neither active nor inactive); the mix of calls is not that of the screen. Potencies of inconclusive entries are left out as doubtful fits. The source made the active and inactive calls. Calls come from the whole dose curve; as a rule, active = well fitted inhibition curve with a large enough effect in the repeat runs; inconclusive = weak or mixed curves; inactive = no such curve, though single readings can be large or run the other way.

experiment: qHTS assay to identify small molecule antagonists of the thyroid receptor (TR) signaling pathway (AID 743065); details: GH3.TRE-Luc, T3-stimulated luciferase inhibition, 23.5 h; series mostly up to 70.3 µM; note: nearly all actives have a fitted effect of over 55% in size
Method in brief: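 GH3.TRE-Luc rat pituitary cells carrying two TR response elements driving luciferase were plated for 4 h, given compound plus 1 nM T3 (final), and incubated 23.5 h at 37 C. ONE-Glo luminescence measured reporter inhibition; CellTiter-Fluor fluorescence tracked cytotoxicity.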
Potency is the fitted concentration of half-maximal effect; tags give direction and shape of the fitted curve.

| SMILES | Potency |
| --- | --- |
| CC(C)CCCCCCc1ccc(O)cc1 | inconclusive [inhibitor, single point] |
| O=C(Nc1ccccc1)c1cc(Cl)ccc1O | active: 5.45 µM |
| CC/C(=C(\c1ccc(O)cc1)c1ccc(OCCN(C)C)cc1)c1ccccc1 | active: 12.2 µM |
| S=C(SSSSSSC(=S)N1CCCCC1)N1CCCCC1 | inconclusive [inhibitor] |
| Clc1ccc(C(Cn2ccnc2)OCc2c(Cl)cccc2Cl)c(Cl)c1 (stereo not given) | active: 11.4 µM |
